Measurements: PubChem BioAssay AID1159614 (National Center for Advancing Translational Sciences (NCATS), 2016)
The campaign covered roughly 45,000 compounds. About 65 (0.1%) were called active. Calls come from the whole dose curve; as a rule, active = well fitted activation curve with a large enough effect; inconclusive = small, poorly fitted or top-dose-only effect; inactive = no such curve, though single readings can be large or run the other way. Some of the results follow.

Each compound was assayed against Galactocerebrosidase (Homo sapiens) (UniProt P54803) (assay: A Novel Cell-Based Assay to Identify Small Molecules for B -Galactocerebrosidase). Conditions: 145M-Twi-hGALC-G270D cells (Twitcher mouse brain line with human GALC G270D), HMU-beta-Gal fluorescence, 48 h; series mostly up to 57.5 µM; activation: at the top concentration.
How it was run: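 Live 145M-Twi cells (Twitcher mouse brain-derived, GALC-null) stably expressing human GALC-G270D, with a wild-type GALC line, were compound-treated. Residual GALC activity was then read as fluorescence from 0.1 mM final HMU-β-gal at pH 5.2; higher signal means activation.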
Note: 0% is about no effect; nearly all actives have a fitted effect of over 65% in size.

Chain of UniProt P54803 (P54803 whole entry, looked up): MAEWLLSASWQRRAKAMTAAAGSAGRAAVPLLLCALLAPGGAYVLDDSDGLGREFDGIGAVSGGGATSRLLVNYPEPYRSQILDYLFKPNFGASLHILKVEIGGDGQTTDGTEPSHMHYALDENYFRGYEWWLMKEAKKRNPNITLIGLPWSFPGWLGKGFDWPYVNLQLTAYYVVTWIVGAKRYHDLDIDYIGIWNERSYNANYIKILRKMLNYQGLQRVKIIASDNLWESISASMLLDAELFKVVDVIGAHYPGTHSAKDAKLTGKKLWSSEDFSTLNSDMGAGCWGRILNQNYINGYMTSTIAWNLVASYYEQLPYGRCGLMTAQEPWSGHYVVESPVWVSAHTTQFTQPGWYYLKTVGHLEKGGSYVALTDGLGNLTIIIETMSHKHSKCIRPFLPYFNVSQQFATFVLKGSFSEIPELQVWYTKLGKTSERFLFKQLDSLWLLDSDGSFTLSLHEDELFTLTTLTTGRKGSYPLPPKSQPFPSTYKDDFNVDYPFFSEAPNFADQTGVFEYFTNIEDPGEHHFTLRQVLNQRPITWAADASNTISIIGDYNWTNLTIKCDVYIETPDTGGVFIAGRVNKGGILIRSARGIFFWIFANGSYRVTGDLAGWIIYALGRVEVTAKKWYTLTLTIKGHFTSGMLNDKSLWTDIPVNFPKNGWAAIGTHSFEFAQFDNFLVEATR

activation, inactive:
CCc1cccc(NC(=O)CCc2nc3cccnc3n2-c2ccccc2)c1 -15.5%, CCOc1cc(CNC(=O)c2ccc3c(c2)N(C)C(=O)C2CCCCN32)cc(OCC)c1OCC (stereo unspecified) -15.2%, Cc1ccc(-n2nc(C)c3c(C(=O)NCc4ccc(F)cc4)cc(C)nc32)cc1 -15.3%, Cc1cccc(N2CC(C)Cn3c2nc2c3c(=O)n(CC(=O)O)c(=O)n2C)c1 (stereo unspecified) -11.6%, COc1ccc(NC(=O)CCc2c(C)nc3c(c2C)c(=O)n(C)c(=O)n3C)cc1OC 3.59%, O=C1N(Cc2cccc(C(F)(F)F)c2)c2ccccc2S(=O)(=O)N1c1cccc(Cl)c1 -10%, COc1ccc(CNC(=O)c2cc3cc(S(=O)(=O)N4CCCCC4)ccc3n2C)c(OC)c1 -10.2%, Cc1c(Cl)cccc1N1C(N)=C(C#N)C(c2cc(CN3CCOCC3)cs2)C2=C1CCCC2=O (stereo unspecified) -2.76%, COc1ccc(NC(=O)CSc2nc(-c3cccs3)cc(C(F)(F)F)c2C#N)cc1 -15%, O=c1c2sc3ccccc3c2n(Cc2cccc(C(F)(F)F)c2)c(=O)n1Cc1ccccc1 -6.98%, CCOC(=O)N1CCc2c(sc(NCc3ccc(N(C)C)cc3)c2C(=O)Nc2ccc(OC)cc2)C1 -11.1%, CC1CCc2c(sc(NC(=O)c3ccc(Cl)cc3Cl)c2C#N)C1 (stereo unspecified) -13.5%, COCCNC(=O)CCc1c(C)nc2c(c(C)nn2-c2ccc(C)cc2)c1C -14.5%, COc1ccc(CNC(=O)c2ccc3c(c2)N(Cc2ccccc2F)C(=O)c2ccccc2S3(=O)=O)cc1 -6.73%, CCOc1ccc(NC(=O)c2c(NCc3sccc3C)sc3c2CCCCC3)cc1 -22.9%, N#Cc1c(C(F)(F)F)cc(-c2cccs2)nc1SCC(=O)Nc1ccc(F)cc1 -16.3%, Cc1cc(F)ccc1NC(=O)CN(C)S(=O)(=O)c1ccc(C(=O)N2CCOCC2)s1 -15.9%, CCN(CC)C(=O)CSc1nc2cc3c(cc2c(=O)n1CCCCCC(=O)NCCc1ccc(OC)c(OC)c1)OCO3 -9.18%, CCc1ccccc1NC(=O)CSC1=Nc2ccccc2C2=NC(Cc3ccccc3)C(=O)N12 (stereo unspecified) -26.9%, O=C(CSc1nc2c([nH]c3ccccc32)c(=O)n1-c1ccc(F)cc1)NC1CCCCC1 6.91%, COc1ccc(OCc2ccc(-c3nc(C#N)c(N4CCN(c5cccc(Cl)c5)CC4)o3)o2)cc1 -16.5%, O=C(COc1ccc([N+](=O)[O-])cc1)Nc1cccc2cccnc12 -15.6%, CCCN(CCC)c1nc(-c2ccccc2F)nc2ccccc12 -12.8%, COc1ccc(-c2nc(SCC(=O)c3ccc(OC)c(Br)c3)n[nH]2)cc1 -6.61%, CCC(C(=O)OC)n1cnc2c(cnn2-c2ccc(F)cc2)c1=O (stereo unspecified) -15.8%, O=c1[nH]c2ccccc2c(=O)n1CCCl -13.2%
